Measurements: publication PMC5892938
Some of the results follow. At the low end of the ranking the order means little.

What follows are sequences tested against GST-SBP-SLBP (stem-loop binding protein) (UniProt Q14493) (assay: targeted RNA Bind-n-Seq). Conditions: RBNS binding buffer: 25 mM Tris pH 7.5, 150 mM KCl, 3 mM MgCl2, 0.1% Tween, 0.5 mg/mL BSA, 1 mM DTT; 27 nM protein, 750 pM RNA pool; temperature not stated; high values mean tight binding.
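Further: DESeq read counts versus GST-SBP nonspecific binding control pulldown.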

Row | Sequence | binding signal (log2 fold change)
1 | GGUCACGUCUCAAUCAACUCAUUCGCAGGAGUUUACUCCUGGUAUCUCAACAGCUCGCAGUCAAG | 0.104
2 | GGUCACGUCUCAAUCAACUCUUUCCCCAGGGAAACCCCUGGCAUACUCAACAGCUCGCAGUCAAG | 0.0252
3 | GGUCACGUCUCAAUCAACUCAUCCUCCAGGGAAAACCCUGGCAUUUUCAACAGCUCGCAGUCAAG | -0.111
4 | GGUCACGUCUCAAUCAACUCUUUCCCAGGAGUUUCCUCCUGUUUAUUCAACAGCUCGCAGUCAAG | 0.0284
5 | GGUCACGUCUCAAUCAACUCAUUUUCCAGGGAAAACCCUGGCUAAUUCAACAGCUCGCAGUCAAG | -0.092
6 | GGUCACGUCUCAAUCAACUCAAUUUCCAGGGAAACCCCUGGCAUUUUCAACAGCUCGCAGUCAAG | 0.0609
7 | GGUCACGUCUCAAUCAACUCAUUUUCCAGGGAAACCCCUGGCAGUCUCAACAGCUCGCAGUCAAG | 0.261
8 | GGUCACGUCUCAAUCAACUCAUGUCCAGGAGUUUUCUCCUGCUAUUUCAACAGCUCGCAGUCAAG | 0.128
9 | GGUCACGUCUCAAUCAACUCUUUCUCAGGAGUUUUCUCCUGUUUUGUCAACAGCUCGCAGUCAAG | 0.122
10 | GGUCACGUCUCAAUCAACUCAUCUUCCAGGGAAACCCCUGGCUAUCUCAACAGCUCGCAGUCAAG | -0.223
11 | GGUCACGUCUCAAUCAACUCUUCCUCAGGAGUUUUCUCCUGCUAACUCAACAGCUCGCAGUCAAG | 0.021
12 | GGUCACGUCUCAAUCAACUCAAUAGAGGGGGGGAAAACCCCUUUACCCUCGUCCUCAACAGCUCGCAGUCAAG | 0.0707
13 | GGUCACGUCUCAAUCAACUCUAUUUCCAGGGAAAACCCUGGCUAUCUCAACAGCUCGCAGUCAAG | 0.0627
14 | GGUCACGUCUCAAUCAACUCAAAAGAGGGGGGGAAAACCCCUUUGCCCUCGAAUUCAACAGCUCGCAGUCAAG | -0.215
15 | GGUCACGUCUCAAUCAACUCAAGUCCCAGGGAAAUCCCUGGCAAUCUCAACAGCUCGCAGUCAAG | -0.0955
16 | GGUCACGUCUCAAUCAACUCUUUUUCAGGAGUUUCCUCCUGUAAUCUCAACAGCUCGCAGUCAAG | -0.0075
17 | GGUCACGUCUCAAUCAACUCAUUCCCCAGGGAAAGCCCUGGUAAACUCAACAGCUCGCAGUCAAG | 0.148
18 | GGUCACGUCUCAAUCAACUCUUCCUCCAGGGAAAACCCUGGUUAUUUCAACAGCUCGCAGUCAAG | 0.0637
19 | GGUCACGUCUCAAUCAACUCUUAAGAGGGGGGGAAAACCCCUUUGCCCUCACCUUCAACAGCUCGCAGUCAAG | -0.104
20 | GGUCACGUCUCAAUCAACUCAUUCCCAGGAGUUUCCUCCUGCAAUCUCAACAGCUCGCAGUCAAG | 0.161
21 | GGUCACGUCUCAAUCAACUCAUUCCCCAGGGAAACCCCUGGUUUUUUCAACAGCUCGCAGUCAAG | -0.445
22 | GGUCACGUCUCAAUCAACUCUAUCCCCAGGGAAAGCCCUGGUUUUUUCAACAGCUCGCAGUCAAG | -0.149
23 | GGUCACGUCUCAAUCAACUCUACUUCCAGGGAAAUCCCUGGCUAUUUCAACAGCUCGCAGUCAAG | 0.082
24 | GGUCACGUCUCAAUCAACUCAUCCUCCAGGGAAACCCCUGGUAUUCUCAACAGCUCGCAGUCAAG | -0.155
25 | GGUCACGUCUCAAUCAACUCACACGAGGGGGGGAAAACCCCUUUACCCUCAUCAUCAACAGCUCGCAGUCAAG | 0.171

Row | Sequence | binding signal (log2 fold change)
26 | GGUCACGUCUCAAUCAACUCUACUCCCAGGGAAAGCCCUGGUAUUCUCAACAGCUCGCAGUCAAG | -0.0814
27 | GGUCACGUCUCAAUCAACUCAUUCCCCAGGGAAAGCCCUGGUUAUUUCAACAGCUCGCAGUCAAG | -0.125
28 | GGUCACGUCUCAAUCAACUCUAUAGAGGGGGGGAAAACCCCUUUACCCUCACCGUCAACAGCUCGCAGUCAAG | -0.417
29 | GGUCACGUCUCAAUCAACUCUAUUCCAGGAGUUUACUCCUGUAUUUUCAACAGCUCGCAGUCAAG | 0.00878
30 | GGUCACGUCUCAAUCAACUCAUAAGAGGGGGGGAAAACCCCUUUACCCUCAAAAUCAACAGCUCGCAGUCAAG | 0.218
31 | GGUCACGUCUCAAUCAACUCUACUCCCAGGGAAAACCCUGGCAAUUUCAACAGCUCGCAGUCAAG | 0.282
32 | GGUCACGUCUCAAUCAACUCUAUCUCCAGGGAAAUCCCUGGCUUACUCAACAGCUCGCAGUCAAG | -0.0569
33 | GGUCACGUCUCAAUCAACUCUUCCUCCAGGGAAAACCCUGGUUAACUCAACAGCUCGCAGUCAAG | -0.0777
34 | GGUCACGUCUCAAUCAACUCAUCGCCCAGGGAAAGCCCUGGUUAUUUCAACAGCUCGCAGUCAAG | -0.153
35 | GGUCACGUCUCAAUCAACUCCUAGGAGGGGGGGAAAACCCCUUUACCCUCAAAAUCAACAGCUCGCAGUCAAG | -0.0793
36 | GGUCACGUCUCAAUCAACUCUUCUUCCAGGGAAAGCCCUGGCAAAUUCAACAGCUCGCAGUCAAG | -0.0143
37 | GGUCACGUCUCAAUCAACUCAUUAGAGGGGGGGAAAACCCCUUUACCCUCAACCUCAACAGCUCGCAGUCAAG | -0.32
38 | GGUCACGUCUCAAUCAACUCAUCCCCAGGAGUUUCCUCCUGUUAACUCAACAGCUCGCAGUCAAG | 0.118
39 | GGUCACGUCUCAAUCAACUCAUUUCCCAGGGAAAUCCCUGGUUAUUUCAACAGCUCGCAGUCAAG | -0.12
40 | GGUCACGUCUCAAUCAACUCUACUUCCAGGGAAAGCCCUGGUAUUUUCAACAGCUCGCAGUCAAG | 0.0217
41 | GGUCACGUCUCAAUCAACUCCUCGGAGGGGGGGAAAACCCCUUUACCCUCACUUUCAACAGCUCGCAGUCAAG | -0.635
42 | GGUCACGUCUCAAUCAACUCUAUUCCAGGAGUUUUCUCCUGUUUUCUCAACAGCUCGCAGUCAAG | -0.0898
43 | GGUCACGUCUCAAUCAACUCUUCCUCAGGAGUUUCCUCCUGUAUUCUCAACAGCUCGCAGUCAAG | 0.19
44 | GGUCACGUCUCAAUCAACUCUUCUUCCAGGGAAAGCCCUGGUAAUGUCAACAGCUCGCAGUCAAG | 0.119
45 | GGUCACGUCUCAAUCAACUCUUUCCCCAGGGAAAGCCCUGGUUAUCUCAACAGCUCGCAGUCAAG | 0.143
46 | GGUCACGUCUCAAUCAACUCUUUUUCCAGGGAAAGCCCUGGUAUAUUCAACAGCUCGCAGUCAAG | 0.123
47 | GGUCACGUCUCAAUCAACUCAUCCCCCAGGGAAAGCCCUGGUUAUCUCAACAGCUCGCAGUCAAG | -0.0687
48 | GGUCACGUCUCAAUCAACUCAUCUCCAGGAGUUUCCUCCUGUUUUCUCAACAGCUCGCAGUCAAG | -0.0127
49 | GGUCACGUCUCAAUCAACUCAUCUUCCAGGGAAAACCCUGGCUAUUUCAACAGCUCGCAGUCAAG | -0.193
50 | GGUCACGUCUCAAUCAACUCAUCUUCAGGAGUUUUCUCCUGCUUACUCAACAGCUCGCAGUCAAG | 0.0427

Row | Sequence | binding signal (log2 fold change)
51 | GGUCACGUCUCAAUCAACUCAAUCUCAGGAGUUUCCUCCUGCUAACUCAACAGCUCGCAGUCAAG | 0.17
52 | GGUCACGUCUCAAUCAACUCUAUUUCCAGGGAAACCCCUGGCAUGUUCAACAGCUCGCAGUCAAG | 0.0113
53 | GGUCACGUCUCAAUCAACUCAAUCUCCAGGGAAAUCCCUGGUAUUUUCAACAGCUCGCAGUCAAG | -0.0307
54 | GGUCACGUCUCAAUCAACUCUUCGCCCAGGGAAAUCCCUGGUUUUCUCAACAGCUCGCAGUCAAG | 0.172
55 | GGUCACGUCUCAAUCAACUCUUUCCCCAGGGAAAUCCCUGGUUAUGUCAACAGCUCGCAGUCAAG | 0.0174
56 | GGUCACGUCUCAAUCAACUCAUCUUCCAGGGAAAGCCCUGGUAAUUUCAACAGCUCGCAGUCAAG | 0.0982
57 | GGUCACGUCUCAAUCAACUCAUUCUCCAGGGAAACCCCUGGUAUACUCAACAGCUCGCAGUCAAG | 0.118
58 | GGUCACGUCUCAAUCAACUCCUAAGAGGGGGGGAAAACCCCUUUACCCUCACAUUCAACAGCUCGCAGUCAAG | -0.497
59 | GGUCACGUCUCAAUCAACUCAUCCUCAGGAGUUUACUCCUGCAUUUUCAACAGCUCGCAGUCAAG | -0.104
60 | GGUCACGUCUCAAUCAACUCUUUUUCCAGGGAAAUCCCUGGCAUUCUCAACAGCUCGCAGUCAAG | -0.0501
61 | GGUCACGUCUCAAUCAACUCCAAAGAGGGGGGGAAAACCCCUUUACCCUCCCAAUCAACAGCUCGCAGUCAAG | 0.197
62 | GGUCACGUCUCAAUCAACUCAUUCCCAGGAGUUUCCUCCUGUUUAUUCAACAGCUCGCAGUCAAG | -0.0185
63 | GGUCACGUCUCAAUCAACUCAUCCUCCAGGGAAAUCCCUGGCAAAUUCAACAGCUCGCAGUCAAG | 0.239
64 | GGUCACGUCUCAAUCAACUCAUUUUCCAGGGAAAACCCUGGCAAUCUCAACAGCUCGCAGUCAAG | -0.019
65 | GGUCACGUCUCAAUCAACUCUAUUCCCAGGGAAACCCCUGGCUAACUCAACAGCUCGCAGUCAAG | -0.145
66 | GGUCACGUCUCAAUCAACUCAUUCGAGGGGGGGAAAACCCCUUUACCCUCCAUAUCAACAGCUCGCAGUCAAG | 0.121
67 | GGUCACGUCUCAAUCAACUCAGAAGAGGGGGGGAAAACCCCUUUGCCCUCAACAUCAACAGCUCGCAGUCAAG | -0.133
68 | GGUCACGUCUCAAUCAACUCUAUCCCAGGAGUUUCCUCCUGCAUACUCAACAGCUCGCAGUCAAG | 0.312
69 | GGUCACGUCUCAAUCAACUCUUUCCCCAGGGAAAACCCUGGCUUACUCAACAGCUCGCAGUCAAG | 0.0645
70 | GGUCACGUCUCAAUCAACUCUCACGAGGGGGGGAAAACCCCUUUGCCCUCACAUUCAACAGCUCGCAGUCAAG | 0.0625
71 | GGUCACGUCUCAAUCAACUCAUUUCCCAGGGAAACCCCUGGCUUACUCAACAGCUCGCAGUCAAG | 0.121
72 | GGUCACGUCUCAAUCAACUCUUCCUCAGGAGUUUUCUCCUGUAAUUUCAACAGCUCGCAGUCAAG | -0.0363
73 | GGUCACGUCUCAAUCAACUCUUUUCCAGGAGUUUCCUCCUGUUAUUUCAACAGCUCGCAGUCAAG | -0.0622
74 | GGUCACGUCUCAAUCAACUCAUCUCCAGGAGUUUACUCCUGCUUUUUCAACAGCUCGCAGUCAAG | -0.0208
